The record followed here is PubChem BioAssay AID1240 (Sanford-Burnham Center for Chemical Genomics, 2008).

Molecules are shown by their SMILES. The campaign covered roughly 50,000 compounds. About 800 (1.6%) showed an effect of 50% or more. This is one part of the list.

The target of the assay is Bcl-2-like protein 10 (Homo sapiens) (UniProt Q9HD36). The assay can be described thus: Phenotype converters, Bcl-B/TR3 peptide binding displacement, primary biochemical FP (AID 1240).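 Further: 0% = Bcl-B with tracer peptide and DMSO and 100% = tracer peptide lacking Bcl-B.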 Particulars: GST-Bcl-B / FITC-TR3 peptide fluorescence polarization; stronger effect = higher value; compound at 3.75 mg/L.
Chain of UniProt Q9HD36 (Q9HD36 whole entry, looked up): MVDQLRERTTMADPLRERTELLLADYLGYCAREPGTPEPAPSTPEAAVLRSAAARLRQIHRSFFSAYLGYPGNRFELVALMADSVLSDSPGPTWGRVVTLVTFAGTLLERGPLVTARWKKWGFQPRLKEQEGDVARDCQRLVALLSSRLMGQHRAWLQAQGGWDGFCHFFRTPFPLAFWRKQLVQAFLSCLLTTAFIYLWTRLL
`COc1ccc(/C=C2/N=C(c3ccc(C)cc3)OC2=O)cc1Br`: the displacement was 127%.

Regarding `CCN(CC)CCSc1nc(O)c(C2CCCCC2)c(=O)[nH]1`, the displacement is -6.4%.

`Cc1cccc(-c2cc(NC(=O)c3ccc(Cl)cc3Cl)n[nH]2)c1`: the displacement is 14.1%.

For `CCOC(=O)C1CCN(C(=O)C2c3ccccc3Oc3ccccc32)CC1`, the displacement is 11.4%.

For `O=C(O)C(Cc1ccccc1)n1c(O)c(/C=C2\C=Nc3ccccc32)sc1=S` (centres undefined), the displacement was -2.3%.

In the case of `Cc1cc2nc(-c3ccc(NC(=O)c4ccccc4)cc3O)oc2cc1C`, the displacement was 6.3%.

Regarding `CCOc1cc(C2C3=C(CC(C)(C)CC3=O)NC3=C2C(=O)CC(C)(C)C3)cc(Br)c1OC`, the displacement was 7.7%.

For the compound `COC(=O)c1ccc(NS(=O)(=O)c2ccc(OC)cc2)cc1`, the displacement amounted to 16.4%.

Turning to `O=C(NC(=S)Nc1ccc(-c2nc3cc(Cl)ccc3o2)cc1)c1ccco1`, the displacement is 17%.

In the case of `CN(C)c1ccc(C2=NN(c3ccc(C=O)cc3)C(c3ccccc3)C2)cc1` (centres undefined), the displacement worked out at 16.7%.

`C=CCN1C(=O)CS/C1=N\S(=O)(=O)c1ccc([N+](=O)[O-])cc1`: the displacement is -0.8%.

In the case of `CCOC(=O)c1c(NC(=S)Nc2ccccc2)sc2c1CCN(CCc1ccccc1)C2`, the displacement is -66.8%.

As to `COC(=O)c1ccccc1NS(=O)(=O)c1c(C)cc(C)cc1C`, the displacement was 1.6%.

`Cn1c(-n2c(CCN3C(=O)c4ccccc4C3=O)nc3ccccc3c2=O)nc2ccccc21`: the displacement came out at 66.3%.

In the case of `Cc1cccc(-n2c(-c3ccccc3)nc3c(cnn3-c3ccccc3)c2=O)c1`, the displacement was -8.1%.

Take `CCOc1ccc(N2C(=O)CC(Sc3ccccc3C(=O)O)C2=O)cc1` (centres undefined): the displacement is -0.2%.

In the case of `O=C(NC(NC(=S)Nc1ccccc1)C(Cl)(Cl)Cl)c1ccccc1F` (centres undefined), the displacement came out at 12.2%.

With `COCCNC(=O)c1cnn2c(C(F)(F)F)cc(-c3ccco3)nc12`, the displacement was -1.9%.

With `O=C1C(=O)N(Cc2cccnc2)C(c2ccc3c(c2)OCO3)/C1=C(\O)c1ccccc1` (centres undefined), the displacement was 0.4%.

As to `O=C(Nc1ccc2oc(-c3ccc(F)cc3Cl)nc2c1)c1cc2ccccc2o1`, the displacement was 10.9%.

For `COc1ccccc1NC(=O)c1c(Cl)cccc1Cl`, the displacement worked out at 3.6%.

Regarding `Cc1cccc(N2C(=O)c3ccc(-c4ccc5c(c4)C(=O)N(c4cccc(C)c4)C5=O)cc3C2=O)c1`, the displacement came to 6.7%.

In the case of `Cn1c(=O)c2c(ncn2CN2C(=O)c3ccccc3C2=O)n(C)c1=O`, the displacement is 26.3%.

Consider `Clc1ccc(/C=N/Nc2nnc3c(n2)[nH]c2ccc(Br)cc23)c(Cl)c1`, for which the displacement was -4.2%.

Turning to `CCOC(=O)c1c(C)sc(Sc2ccc(Cl)cc2[N+](=O)[O-])c1OC`, the displacement is -2.2%.

`O=C1CC(N2CCN(Cc3ccc4c(c3)OCO4)CC2)C(=O)N1CCc1ccccc1` (centres undefined): the displacement turned out to be 3.1%.

Turning to `CC(C)(C)c1ccc(OCC(=O)Nc2ccc(NC(=O)c3ccco3)c(Cl)c2)cc1`, the displacement stood at 2.7%.

In the case of `COc1ccc(CCNC(=O)Cc2ccc(Cl)cc2)cc1`, the displacement is -8.1%.

For the compound `O=C(Nc1ccc(Cl)cc1)Nc1ccc(F)c(Cl)c1`, the displacement is 1%.

On to `CCOC(=O)C1=C(N)Oc2cc(O)ccc2C1c1ccc([N+](=O)[O-])cc1` (centres undefined), for which the displacement was -10.4%.

`CCN(CC)c1ccc(C(=O)Nc2ccncc2)cc1`: the displacement was determined as 3.9%.

In the case of `CN(CCO)C(=O)c1c(NC(=O)c2ccccc2)sc2c1CCCC2`, the displacement was -5.3%.

On to `COc1cc(/C=N/N2CCN(Cc3ccc(C)cc3)CC2)cc(OC)c1O`, for which the displacement worked out at 23.9%.

Turning to `Cc1nnc(NC(=O)COC(=O)c2ccc([N+](=O)[O-])cc2)s1`, the displacement was 1.7%.

On to `CN1C(=O)N(C)C2(c3ccccc3)N(N)C(N)=NC12c1ccccc1` (centres undefined), for which the displacement is 2.5%.

`CCOC(=O)C1=C(C)N=C2SCC(=O)N2C1c1ccc(C)cc1` (centres undefined): the displacement was found to be 0%.

Consider `O=C(Nc1ccc(Br)cn1)c1ccc(Oc2ccccc2)cc1`, for which the displacement is -9.1%.

In the case of `Cn1c(=O)c(-c2nc3ccccc3c(=O)[nH]2)c(O)c2ccccc21`, the displacement is -3.3%.

In the case of `COc1cc(N/N=C/c2ccncc2)ncn1`, the displacement was -5.1%.

As for `COc1cccc(N2C(=O)C=CC2=O)c1`, the displacement came to 8.2%.

`Cc1ccc(Cl)cc1NC(=O)C(=O)NCc1ccco1`: the displacement is -13.4%.

As for `O=C(COc1cc(Cl)c(Cl)cc1Cl)N/N=C/c1cccnc1`, the displacement stood at 10.4%.

Consider `COC(=O)CN(c1cc(OC)ccc1OC)S(C)(=O)=O`, for which the displacement was 6.5%.

As to `NS(=O)(=O)c1ccc(CCNc2ccc(C(F)(F)F)cc2[N+](=O)[O-])cc1`, the displacement was determined as 20.2%.

`O=C(COc1ccccc1Cl)NCCc1nc2ccccc2[nH]1`: the displacement is -1.2%.

In the case of `O=C(Nc1ccncc1)C12CC3CC(CC(C3)C1)C2`, the displacement was 4.4%.

Turning to `Clc1cccc(NCc2ccncc2)c1`, the displacement came to 11.3%.

`C=CCn1c(SCCC)nc2sc3c(c2c1=O)CCc1ccccc1-3`: the displacement amounted to 0.4%.

For `O=C(N/N=C\c1cc(O)c(Br)cc1Br)c1ccc(Br)cc1`, the displacement is -0.6%.

In the case of `O=C1C(=O)N(CC2CCCO2)C(c2cccc(F)c2)/C1=C(/O)c1ccccc1` (centres undefined), the displacement is -10.8%.

For `COc1cc(C(=O)Nc2c(C)cc(C)cc2C)c([N+](=O)[O-])cc1OC`, the displacement was 10.6%.

`COC(=O)c1cc(C(=O)N(Cc2ccccc2)c2ccccn2)cc([N+](=O)[O-])c1`: the displacement turned out to be 16.3%.

As to `Cc1cc(C)c2nc3s/c(=C\c4ccc(-c5ccc(Cl)c(C(=O)O)c5)o4)c(=O)n3c2c1`, the displacement came out at 45.2%.

As to `CCOc1ccc(N2C(=O)S/C(=C\c3ccco3)C2=O)cc1`, the displacement worked out at 92.2%.

For `CC(C)NCC(O)COc1ccccc1C(C)(C)C` (centres undefined), the displacement is -11.3%.

`Cc1ccc(S(=O)(=O)Nc2ccc3c(c2)ncn3C)cc1`: the displacement is -4.7%.

Consider `Cc1ccsc1C=Nc1ccc(-c2ccc([N+](=O)[O-])cc2)cc1`, for which the displacement was -1.2%.

In the case of `O=C(COc1ccccc1)NC1CCC(CC2CCC(NC(=O)COc3ccccc3)CC2)CC1` (centres undefined), the displacement stood at 5.8%.

Take `Cc1cc(F)ccc1NCc1cccnc1`: the displacement was 3.1%.

As to `COc1ccc2c(c1)OCC/C2=N\OC(=O)c1ccccc1F`, the displacement was -2.8%.

Consider `C/C(=N\OCC(=O)N=Nc1c(O)n(CN2CCN(C)CC2)c2ccccc12)c1ccccc1`, for which the displacement was -3%.

In the case of `CCc1c(C)nc2c(Br)cccc2c1SCC(=O)O`, the displacement is -5.4%.

`O=C(NCCCn1ccnc1)c1cnn2c1NC(c1cccs1)CC2C(F)(F)F` (centres undefined): the displacement was -1.1%.

With `O=C(O)c1ccc(S(=O)(=O)c2ccc3c(c2)C(=O)N(c2nc4ccccc4s2)C3=O)cc1`, the displacement is -5.7%.

As to `CN=CC1=C(O)C(C(=O)OC)C(C)(C)CC1=O` (centres undefined), the displacement is -0.9%.

Consider `O=C(N/N=C\c1ccccc1C(F)(F)F)c1ccc(=O)[nH]n1`, for which the displacement is 5.5%.

In the case of `O=C1C(=Cc2cc([N+](=O)[O-])ccc2O)C(=O)c2ccccc21`, the displacement is -8.6%.

Consider `CCNC(=O)c1ccccc1-c1ccccc1C(=O)O`, for which the displacement was determined as 4.1%.

On to `Cc1ccc(/C=C(/C#N)C(=O)OC(C)C)o1`, for which the displacement was 0.9%.
